Data reported in the supplement of paper PMC8728848.
The list shows a part of the results.

Columns and labels:
Assay in all cases: glycan array binding signal (z-score within array); higher = stronger binding
Conditions in all cases: glycan notation: IUPAC condensed, linker removed
[1] = target: Neu5Ac(a2-6)Gal(b1-4)GlcNAc(b1-3)Gal(b1-4)GlcNAc(b1-3)Gal(b1-4)GlcNAc
Summary of the method: (§1)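 Columns mapping to the same glycan were averaged after glycan names were converted to IUPAC-condensed notation. The data come from 3228 arrays in the Consortium for Functional Glycomics database, limited to those with an available protein sequence. Binding is reported as a within-array Z-score averaged across arrays of one protein sequence and across linkers.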

[2] = target: Neu5Ac(a2-6)Gal(b1-4)GlcNAc(b1-3)Gal(b1-4)GlcNAc(b1-3)Gal(b1-4)GlcNAc(b1-2)Man(a1-3)[Neu5Ac(a2-6)Gal(b1-4)GlcNAc(b1-3)Gal(b1-4)GlcNAc(b1-3)Gal(b1-4)GlcNAc(b1-2)Man(a1-6)]GalNAc
Summary of the method: as §1

[3] = target: Neu5Ac(a2-6)Gal(b1-4)GlcNAc(b1-3)Gal(b1-4)GlcNAc(b1-3)GalNAc
Summary of the method: as §1

[4] = target: Neu5Ac(a2-6)Gal(b1-4)GlcNAc(b1-3)Gal(b1-4)GlcNAc(b1-3)[Neu5Ac(a2-6)Gal(b1-4)GlcNAc(b1-3)Gal(b1-4)GlcNAc(b1-6)]GalNAc
Summary of the method: as §1

[5] = target: Neu5Ac(a2-6)Gal(b1-4)GlcNAc(b1-3)Gal(b1-4)GlcNAc(b1-6)[Gal(b1-3)]GalNAc
Summary of the method: as §1

[6] = target: Neu5Ac(a2-6)Gal(b1-4)GlcNAc(b1-3)Gal(b1-4)[Fuc(a1-3)]GlcNAc(b1-3)Gal(b1-4)[Fuc(a1-3)]GlcNAc
Summary of the method: as §1

[7] = target: Neu5Ac(a2-6)Gal(b1-4)GlcNAc(b1-3)GalNAc
Summary of the method: as §1

[8] = target: Neu5Ac(a2-6)Gal(b1-4)GlcNAc(b1-3)[Neu5Ac(a2-6)Gal(b1-4)GlcNAc(b1-6)]GalNAc
Summary of the method: as §1

[9] = target: Neu5Ac(a2-6)Gal(b1-4)GlcNAc(b1-6)GalNAc
Summary of the method: as §1

[10] = target: Neu5Ac(a2-6)Gal(b1-4)GlcNAc(b1-6)[Gal(b1-3)GlcNAc(b1-3)]Gal(b1-4)Glc
Summary of the method: as §1

[11] = target: Neu5Ac(a2-6)Gal(b1-4)GlcNAc(b1-6)[Gal(b1-3)]GalNAc
Summary of the method: as §1

[12] = target: Neu5Ac(a2-6)Gal(b1-4)GlcNAc6S
Summary of the method: as §1

[13] = target: Neu5Ac(a2-6)GalNAc
Summary of the method: as §1

[14] = target: Neu5Ac(a2-6)GalNAc(b1-4)GlcNAc
Summary of the method: as §1

[15] = target: Neu5Ac(a2-6)GalNAc(b1-4)GlcNAc6S
Summary of the method: as §1

[16] = target: Neu5Ac(a2-6)GlcNAc(b1-4)GlcNAc
Summary of the method: as §1

[17] = target: Neu5Ac(a2-6)GlcNAc(b1-4)GlcNAc(b1-4)GlcNAc
Summary of the method: as §1

[18] = target: Neu5Ac(a2-8)Neu5Ac
Summary of the method: as §1

[19] = target: Neu5Ac(a2-8)Neu5Ac(a2-3)Gal(b1-3)GalNAc(b1-4)[Neu5Ac(a2-3)]Gal(b1-4)Glc
Summary of the method: as §1

[20] = target: Neu5Ac(a2-8)Neu5Ac(a2-3)Gal(b1-3)GalNAc(b1-4)[Neu5Ac(a2-8)Neu5Ac(a2-3)]Gal(b1-4)Glc
Summary of the method: as §1

[21] = target: Neu5Ac(a2-8)Neu5Ac(a2-3)Gal(b1-4)Glc
Summary of the method: as §1

[22] = target: Neu5Ac(a2-8)Neu5Ac(a2-3)Gal(b1-4)GlcNAc
Summary of the method: as §1

[23] = target: Neu5Ac(a2-8)Neu5Ac(a2-3)[Gal(b1-3)GalNAc(b1-4)]Gal(b1-4)Glc
Summary of the method: as §1

[24] = target: Neu5Ac(a2-8)Neu5Ac(a2-3)[GalNAc(b1-4)]Gal(b1-4)Glc
Summary of the method: as §1

[25] = target: Neu5Ac(a2-8)Neu5Ac(a2-8)Neu5Ac
Summary of the method: as §1

[26] = target: Neu5Ac(a2-8)Neu5Ac(a2-8)Neu5Ac(a2-3)Gal(b1-4)Glc
Summary of the method: as §1

[27] = target: Neu5Ac(a2-8)Neu5Ac(a2-8)Neu5Ac(a2-3)[Gal(b1-3)GalNAc(b1-4)]Gal(b1-4)Glc
Summary of the method: as §1

[28] = target: Neu5Ac(a2-8)Neu5Ac(a2-8)Neu5Ac(a2-3)[GalNAc(b1-4)]Gal(b1-4)Glc
Summary of the method: as §1

[29] = target: Neu5Ac(a2-8)Neu5Ac(a2-8)Neu5Ac(a2-8)Neu5Ac(a2-3)[GalNAc(b1-4)]Gal(b1-4)Glc
Summary of the method: as §1

[30] = target: Neu5Ac(a2-8)Neu5Gc(a2-3)Gal(b1-4)GlcNAc
Summary of the method: as §1

[31] = target: Neu5Ac(b2-6)Gal(b1-4)GlcNAc
Summary of the method: as §1

[32] = target: Neu5Ac(b2-6)GalNAc
Summary of the method: as §1

[33] = target: Neu5Ac9Ac(a2-3)Gal(b1-3)GlcNAc
Summary of the method: as §1

[34] = target: Neu5Ac9Ac(a2-3)Gal(b1-4)GlcNAc
Summary of the method: as §1

[35] = target: Neu5Ac9Ac(a2-6)Gal(b1-4)GlcNAc
Summary of the method: as §1

[36] = target: Neu5Gc(a2-3)Gal(b1-3)GlcNAc
Summary of the method: as §1

[37] = target: Neu5Gc(a2-3)Gal(b1-3)[Fuc(a1-4)]GlcNAc
Summary of the method: as §1

[38] = target: Neu5Gc(a2-3)Gal(b1-4)Glc
Summary of the method: as §1

[39] = target: Neu5Gc(a2-3)Gal(b1-4)GlcNAc
Summary of the method: as §1

[40] = target: Neu5Gc(a2-3)Gal(b1-4)GlcNAc(b1-3)Gal(b1-4)GlcNAc(b1-2)Man(a1-3)[Neu5Gc(a2-3)Gal(b1-4)GlcNAc(b1-3)Gal(b1-4)GlcNAc(b1-2)Man(a1-6)]Man(b1-4)GlcNAc(b1-4)GlcNAc
Summary of the method: as §1

[41] = target: Neu5Gc(a2-3)Gal(b1-4)[Fuc(a1-3)]GlcNAc
Summary of the method: as §1

[42] = target: Neu5Gc(a2-6)Gal(b1-4)GlcNAc
Summary of the method: as §1

[43] = target: Neu5Gc(a2-6)GalNAc
Summary of the method: as §1

[44] = target: Neu5Gc(a2-8)Neu5Ac(a2-3)Gal(b1-4)GlcNAc
Summary of the method: as §1

[45] = target: Neu5Gc(a2-8)Neu5Gc(a2-3)Gal(b1-4)GlcNAc
Summary of the method: as §1

B1: SGC, Q9M345 (protein)
chain: QNLNFTYNGFHPPLTDISLQGLATVTPNGLLKLTNTSVQKTGHAFCTERIRFKDSQNGNVSSFSTTFVFAIHSQIPTLSGHGIAFVVAPTLGLPFALPSQYIGLFNISNNGNDTNHIFAVEFDTIQSSEFGDPNDNHVGIDLNGLRSANYSTAGYRDDHDKFQNLSLISRKRIQVWIDYDNRSHRIDVTVAPFDSDKPRKPLVSYVRDLSSILLEDMYVGFSSATGSVLSEHFLVGWSFRLNGEAPMLSLSKLPKLPRFEPRRIS
- glycan array binding signal (z-score) [1]: -0.302
- glycan array binding signal (z-score) [2]: 0.658
- glycan array binding signal (z-score) [3]: -0.38
- glycan array binding signal (z-score) [4]: 0.306
- glycan array binding signal (z-score) [5]: -0.29
- glycan array binding signal (z-score) [6]: 0.418
- glycan array binding signal (z-score) [7]: 1.1
- glycan array binding signal (z-score) [8]: -0.288
- glycan array binding signal (z-score) [9]: -0.25
- glycan array binding signal (z-score) [10]: -0.334
- glycan array binding signal (z-score) [11]: -0.264
- glycan array binding signal (z-score) [12]: -0.37
- glycan array binding signal (z-score) [13]: -0.34
- glycan array binding signal (z-score) [14]: -0.371
- glycan array binding signal (z-score) [15]: -0.379
- glycan array binding signal (z-score) [16]: -0.328
- glycan array binding signal (z-score) [17]: -0.43
- glycan array binding signal (z-score) [18]: -0.356
- glycan array binding signal (z-score) [19]: -0.321
- glycan array binding signal (z-score) [20]: 0.174
- glycan array binding signal (z-score) [21]: -0.403
- glycan array binding signal (z-score) [22]: -0.396
- glycan array binding signal (z-score) [23]: -0.317
- glycan array binding signal (z-score) [24]: 1.7
- glycan array binding signal (z-score) [25]: -0.347
- glycan array binding signal (z-score) [26]: -0.307
- glycan array binding signal (z-score) [27]: -0.34
- glycan array binding signal (z-score) [28]: 0.644
- glycan array binding signal (z-score) [29]: -0.284
- glycan array binding signal (z-score) [30]: -0.312
- glycan array binding signal (z-score) [31]: -0.252
- glycan array binding signal (z-score) [32]: -0.286
- glycan array binding signal (z-score) [33]: -0.385
- glycan array binding signal (z-score) [34]: -0.34
- glycan array binding signal (z-score) [35]: -0.363
- glycan array binding signal (z-score) [36]: -0.39
- glycan array binding signal (z-score) [37]: -0.349
- glycan array binding signal (z-score) [38]: -0.356
- glycan array binding signal (z-score) [39]: -0.413
- glycan array binding signal (z-score) [40]: -0.369
- glycan array binding signal (z-score) [41]: -0.374
- glycan array binding signal (z-score) [42]: -0.362
- glycan array binding signal (z-score) [43]: -0.321
- glycan array binding signal (z-score) [44]: -0.365
- glycan array binding signal (z-score) [45]: -0.369
